First the molecules themselves.
B1: GPR68, Q15743 (parent)
chain: MGNITADNSSMSCTIDHTIHQTLAPVVYVTVLVVGFPANCLSLYFGYLQIKARNELGVYLCNLTVADLFYICSLPFWLQYVLQHDNWSHGDLSCQVCGILLYENIYISVGFLCCISVDRYLAVAHPFRFHQFRTLKAAVGVSVVIWAKELLTSIYFLMHEEVIEDENQHRVCFEHYPIQAWQRAINYYRFLVGFLFPICLLLASYQGILRAVRRSHGTQKSRKDQIQRLVLSTVVIFLACFLPYHVLLLVRSVWEASCDFAKGVFNAYHFSLLLTSFNCVADPVLYCFVSETTHRDLARLRGACLAFLTCSRTGRAREAYPLGAPEASGKSGAQGEEPELLTKLHPAFQTPNSPGSGGFPTGRLA

Variants of B1 are the subject of data set [1]. The data set is described as follows: cAMP reporter score (Enrich2 score, wild type = 0); higher = more signal; HEK293T, FACS bins.
The variants in data set [2] derive from B1. The data set is described as follows: surface expression score (Enrich2 score, wild type = 0); higher = more signal; HEK293T, FACS bins.

Scores with a large standard error are left out. The source holds two more conditions with little spread; they are left out. Names with del lack the residues named; names with ins carry added residues between the positions named. For some of these results: How much ogerin was present is not stated here.

As to L48G, the cAMP reporter score is -0.342 in data set [1] (pH 5.5); -0.602 in data set [1] (pH 6, modulator: ogerin); -1.17 in data set [1] (pH 6.5, modulator: ogerin). Besides, the surface expression score in data set [2] is -0.857.
Consider L48E, for which the cAMP reporter score is -0.167 in data set [1] (pH 5.5); -0.171 in data set [1] (pH 6); -0.916 in data set [1] (pH 6, modulator: ogerin); -0.831 in data set [1] (pH 6.5, modulator: ogerin). Besides, the surface expression score in data set [2] was -1.51.
For L48T the same measures were 0.213, -0.056, 0.616, -0.578 and -1.62.
Consider L48C, for which the cAMP reporter score in data set [1] (pH 5.5) was -0.123; in data set [1] (pH 6, modulator: ogerin) it was 0.055; in data set [1] (pH 6.5, modulator: ogerin), -0.145. In data set [2], the surface expression score was -0.693.
As for L48Y, the cAMP reporter score is -1.35 in data set [1] (pH 5.5); -1.26 in data set [1] (pH 6); -1.41 in data set [1] (pH 6, modulator: ogerin); -1.23 in data set [1] (pH 6.5, modulator: ogerin). The surface expression score in data set [2] is -2.13.
Consider L48I, for which the cAMP reporter score was -0.591 in data set [1] (pH 5.5); -0.556 in data set [1] (pH 6); -1.02 in data set [1] (pH 6.5, modulator: ogerin). In addition, the surface expression score in data set [2] is -0.359.
For S42R, the cAMP reporter score in data set [1] (pH 5.5) was -1; in data set [1] (pH 6) it was -0.389; in data set [1] (pH 6, modulator: ogerin), -1.42; in data set [1] (pH 6.5, modulator: ogerin), -1.31. For the same variant, the surface expression score in data set [2] was -1.34.
For S42I the same measures were -1.1, -0.225, -0.887, -0.812 and -0.297.
On to S42Q, for which the cAMP reporter score is -0.449 in data set [1] (pH 5.5); -0.59 in data set [1] (pH 6); -0.692 in data set [1] (pH 6, modulator: ogerin). Further, the surface expression score in data set [2] was -0.391.
In the case of S42P, the cAMP reporter score is -0.849 in data set [1] (pH 5.5); -0.596 in data set [1] (pH 6); -0.843 in data set [1] (pH 6, modulator: ogerin); 0.007 in data set [1] (pH 6.5, modulator: ogerin). The surface expression score in data set [2] was -2.46.
For S42C the same measures were 0.236, -0.941, -0.037, -0.344 and 1.7.
On the same counts, the results for S42T are 0.838, 0.817, 1.07, 0.704 and 0.598.
For S42A the same measures were 1.11, 1.89, 1.27, 2.34 and 1.89.
On to S42F, for which the cAMP reporter score in data set [1] (pH 5.5) worked out at 0.616; in data set [1] (pH 6), 0.231; in data set [1] (pH 6, modulator: ogerin), 0.823; in data set [1] (pH 6.5, modulator: ogerin) it was 0.276. In addition, the surface expression score in data set [2] is 0.243.
On to S42M, for which the cAMP reporter score was -0.135 in data set [1] (pH 5.5); 1.14 in data set [1] (pH 6); -0.019 in data set [1] (pH 6, modulator: ogerin); 0.256 in data set [1] (pH 6.5, modulator: ogerin). In data set [2], the surface expression score is -0.099.
On the same counts, the results for S42W are 0.475, -0.316, -0.729, -0.77 and -2.53.
With S42G, the cAMP reporter score was -0.443 in data set [1] (pH 5.5); -0.094 in data set [1] (pH 6); -0.919 in data set [1] (pH 6, modulator: ogerin); -0.907 in data set [1] (pH 6.5, modulator: ogerin). Further, the surface expression score in data set [2] came out at 2.65.
With S42Y, the cAMP reporter score in data set [1] (pH 5.5) is -2.08; in data set [1] (pH 6), -2.16; in data set [1] (pH 6.5, modulator: ogerin) it was -1.01. In addition, the surface expression score in data set [2] was -2.94.
For S42N, the cAMP reporter score is -0.171 in data set [1] (pH 5.5); -0.867 in data set [1] (pH 6); -0.096 in data set [1] (pH 6, modulator: ogerin); -0.849 in data set [1] (pH 6.5, modulator: ogerin). For the same variant, the surface expression score in data set [2] was -0.699.
On the same counts, the results for S42K are -1.37, -0.57, -1.42, -0.871 and -2.11.
In the case of S42E, the cAMP reporter score in data set [1] (pH 5.5) is -0.651; in data set [1] (pH 6) it was -0.139; in data set [1] (pH 6, modulator: ogerin) it was -0.667; in data set [1] (pH 6.5, modulator: ogerin) it was -0.44. Moreover, the surface expression score in data set [2] was -0.934.
S42L: the cAMP reporter score in data set [1] (pH 5.5) was 0.317; in data set [1] (pH 6) it was -0.104; in data set [1] (pH 6.5, modulator: ogerin), -0.087. The surface expression score in data set [2] was 1.18.
Turning to S42H, the cAMP reporter score in data set [1] (pH 5.5) is -0.822; in data set [1] (pH 6), -1.3; in data set [1] (pH 6, modulator: ogerin), -0.837; in data set [1] (pH 6.5, modulator: ogerin), -1.03. In data set [2], the surface expression score was -1.87.
For S42V the same measures were 0.78, 0.008, 0.453, 0.157 and 2.37.
For Q49_I50insGS the same measures were -1.26, -0.949, -0.548, -1.31 and -2.51.
On the same counts, the results for L48_I50del are -1.1, -0.483, -1.06, -2.33 and -1.81.
Turning to L48del, the cAMP reporter score was -2.37 in data set [1] (pH 5.5); -1.41 in data set [1] (pH 6); -1.93 in data set [1] (pH 6, modulator: ogerin); -1.67 in data set [1] (pH 6.5, modulator: ogerin). Moreover, the surface expression score in data set [2] was -2.91.
Consider I50_K51del, for which the cAMP reporter score was -1.52 in data set [1] (pH 5.5); -0.862 in data set [1] (pH 6, modulator: ogerin); -0.606 in data set [1] (pH 6.5, modulator: ogerin). In addition, the surface expression score in data set [2] is -1.37.
For the variant Q49_K51del, the cAMP reporter score was -1.78 in data set [1] (pH 5.5); -1.39 in data set [1] (pH 6); -1.8 in data set [1] (pH 6, modulator: ogerin); -1.25 in data set [1] (pH 6.5, modulator: ogerin). The surface expression score in data set [2] was -2.62.
For S42del, the cAMP reporter score in data set [1] (pH 5.5) is -1.31; in data set [1] (pH 6) it was -0.541; in data set [1] (pH 6, modulator: ogerin) it was -0.575; in data set [1] (pH 6.5, modulator: ogerin) it was -1.29. In addition, the surface expression score in data set [2] was -2.19.
For F45_G46del the same measures were -1.04, -0.689, -1.08, -1.05 and -2.04.

Values taken from the GPR68 mutational scans of Howard et al. (2025).
